This passage reports binding signal (log2 normalized intensity) results from article PMC10726135.

This is one part of the list. At the low end of the ranking the order means little. The protein was read in a cell extract, so binding may be indirect.

In this assay the target is T1, HNF4alpha2 (COS-7 nuclear extract) (UniProt P41235).
T1 sequence: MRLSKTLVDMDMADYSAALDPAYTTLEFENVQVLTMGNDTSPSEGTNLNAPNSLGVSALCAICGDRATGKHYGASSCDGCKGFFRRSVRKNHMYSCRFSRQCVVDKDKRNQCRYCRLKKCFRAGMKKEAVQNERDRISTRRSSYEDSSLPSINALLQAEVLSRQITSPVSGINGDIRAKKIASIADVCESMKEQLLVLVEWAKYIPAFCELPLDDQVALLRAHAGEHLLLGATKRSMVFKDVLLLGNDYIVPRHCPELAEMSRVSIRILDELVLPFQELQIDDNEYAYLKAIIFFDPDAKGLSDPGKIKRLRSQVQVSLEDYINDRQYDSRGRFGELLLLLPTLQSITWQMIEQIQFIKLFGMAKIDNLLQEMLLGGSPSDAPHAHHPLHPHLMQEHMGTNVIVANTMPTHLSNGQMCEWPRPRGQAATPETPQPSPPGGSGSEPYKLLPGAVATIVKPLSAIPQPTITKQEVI
Description: protein-binding microarray. The settings on record: COS-7 nuclear extract on double-stranded Agilent 4x180k PBM; binding buffer, salt, pH and temperature not given; high values mean tight binding; double strand, one strand shown; sequences stand for … in …GCCTAGGGAGATTAGAGTATCGGTCGA
As to GTCACGTTCCAGCTGCTTCAGGAGCCCCCT, the binding signal (log2 normalized intensity) amounted to 3.72.

Turning to CCACTGGTGTAAGCTCTGGAGTCCAAAGGT, the binding signal (log2 normalized intensity) was determined as 3.79.

Consider TGGATTAGTCCCTTTTCACGCTAAGAAGGA, for which the binding signal (log2 normalized intensity) is -1.19.

As to AGGAGGATCAGGTTTCACTGTTTTGGACAT, the binding signal (log2 normalized intensity) was 1.78.

Take TAACTTAACCACTCAATCAGTACTGAAACA: the binding signal (log2 normalized intensity) is -0.548.

Turning to GCCCCAGCTCGCTCAGCTGGTTGCCCCTTT, the binding signal (log2 normalized intensity) stood at 4.14.

On to AGAGCATCTTGGACTTGGGACTCTGCAGAC, for which the binding signal (log2 normalized intensity) was 4.76.

With TAAATCATGGGGAGCATCTATTTTCTATTT, the binding signal (log2 normalized intensity) was -1.12.

Consider CTGACATGCTGTCACTTCTGCTGCATTCTA, for which the binding signal (log2 normalized intensity) was -0.802.

As to CCCTTATCTTTTTAGCAACTGGTATGTTAG, the binding signal (log2 normalized intensity) was determined as 2.33.

Turning to ACCTACCCTTTGCCCTGGACATATTTGTCT, the binding signal (log2 normalized intensity) is 2.03.

Consider GTTCCTGAGATAAAAAGAAGCTTGGTATGT, for which the binding signal (log2 normalized intensity) stood at 1.31.

As to ATGTGGGGCGTGTGTTAGACTTTGGACCTG, the binding signal (log2 normalized intensity) stood at 8.86.

TGGACTAAGAGTAGCGGTTTCTGCTTGGTT: the binding signal (log2 normalized intensity) was found to be 1.09.

As to AACATGAAACAGTCACAGTTATCAGACAGA, the binding signal (log2 normalized intensity) is -1.11.

In the case of GACCTGCGTAGCCCAAAGGTCAGTCTGCAG, the binding signal (log2 normalized intensity) was 3.21.

Turning to TGAGATAGGTACTATTATTAGAGTCCCTTT, the binding signal (log2 normalized intensity) was 1.01.

In the case of GGCTGTAGCAACCAAGTACCGCAAACAAGG, the binding signal (log2 normalized intensity) is -1.1.

Consider GTCATGTCTCATTGCCCCTTGAGCTAAATA, for which the binding signal (log2 normalized intensity) stood at 3.22.

Consider TGTTCTTGGGGCCCACAGAGTCCAGAGGTC, for which the binding signal (log2 normalized intensity) turned out to be 5.61.

With AAAGGTTAGCTTGGACAGAGTTTGTGGTGT, the binding signal (log2 normalized intensity) was found to be 2.23.

Consider CCCCAGCATTTTGCAGACCTTGGTCAAAGT, for which the binding signal (log2 normalized intensity) came out at 2.3.

As to TGGACAGTGTAAGATAAAAATCAGAGATCA, the binding signal (log2 normalized intensity) came to 0.35.

Regarding TTGTTTCCTCAGGGAGGAAGGCAACCACAG, the binding signal (log2 normalized intensity) was -0.909.

Consider ACTTCTTTGTGATGTGTGGATTCAGCTCAC, for which the binding signal (log2 normalized intensity) is 1.29.

As for GTTCAGGAGTTGTCTGTCCAGTTCAGGAGT, the binding signal (log2 normalized intensity) turned out to be 1.37.

Take CCTTCAGGGGCATTTGAGTACATGCCTCTC: the binding signal (log2 normalized intensity) stood at 0.337.

For the sequence AAGATGGCTCTCCCGGGGCGGGGGTGACCA, the binding signal (log2 normalized intensity) was -0.629.

Regarding TGAGCTCTGGGGTCCTCTGCTGCCCTCTAG, the binding signal (log2 normalized intensity) was found to be 2.05.

ACTTCAGGATTCTTTATCTTAGCTTCAGCT: the binding signal (log2 normalized intensity) was -1.16.

Take AAAGCAAAGTCCAACACAGAAGCCTTTTGT: the binding signal (log2 normalized intensity) came to 1.51.

CCACAAAAGCCAACAGTACAGCCTTTGATC: the binding signal (log2 normalized intensity) came out at 1.83.

On to CCTTTGACCTTCGGCTTCCCCAGAGAAAGA, for which the binding signal (log2 normalized intensity) stood at 3.03.

Regarding TTTTATCACCACATCTCCCACTGTGGACTC, the binding signal (log2 normalized intensity) amounted to 3.51.

On to AGGGAAAGTGGGGGGAAAGAATAACGTTAC, for which the binding signal (log2 normalized intensity) is -1.06.

As to GGGAGACCAGGAAAGTGAATATCTGGCAAA, the binding signal (log2 normalized intensity) was -1.15.

Regarding AAAAGGCTAGAGCGCGCTGGAATCTTGATA, the binding signal (log2 normalized intensity) was -1.2.

For ACTTCTGAGTTTTATCAGCTTCCCTGAGAT, the binding signal (log2 normalized intensity) stood at 1.12.

As for AGATTCTTTCTTCCTTTTGAAAAAGTGAGT, the binding signal (log2 normalized intensity) is 0.753.

With TTTAAGATTCCAGCTCTCGGATCCTCTGGG, the binding signal (log2 normalized intensity) was -1.22.

Consider GCAAGTAATTAAACATTTATTGAGCAGGTT, for which the binding signal (log2 normalized intensity) came out at 0.444.

On to ATCTTGGAACAGGTCTCAGGAGTCCAGGGG, for which the binding signal (log2 normalized intensity) was -0.518.

In the case of TATGTCATAATGTACTCCACTGTGCAGTGG, the binding signal (log2 normalized intensity) was 0.38.

Consider ATCATAGTGTTTCTTCTGGTTCTGCAAGGC, for which the binding signal (log2 normalized intensity) is 1.26.

With TCAGGCAAACAACAGGCATCAACTCTATCA, the binding signal (log2 normalized intensity) was -1.15.

Turning to GCCAAAAGTCTCAGAAGCTGGGAGACCACT, the binding signal (log2 normalized intensity) is -1.26.

For ATAAGGTGAACATACGTGGCTACCTGTGCA, the binding signal (log2 normalized intensity) is -0.872.

For CTGCTTAAACCTTTCAAGGGATTCCTATCG, the binding signal (log2 normalized intensity) is -0.991.

CAAGGGTGGATATTGGGAGGCCCATTGTGC: the binding signal (log2 normalized intensity) was 0.557.

Consider CAGTCTAGAATCTGCAGCCCCTTTTGGAAT, for which the binding signal (log2 normalized intensity) is 2.02.

Take GCACACCTGGATCTTCCAGGCCTCCAGCTC: the binding signal (log2 normalized intensity) is -1.14.

For AAGCAGGAGCATGGGGGATGGGGCCTGGGA, the binding signal (log2 normalized intensity) was -1.1.

As for ACAGCGTTTTCCCATTCATGACATTGATTT, the binding signal (log2 normalized intensity) is 1.66.

AGTCTTTATTGGTACGTTCCAATATTCTGG: the binding signal (log2 normalized intensity) was 1.61.

As for CTTTTTTTCCCCCTCACTGAATATGTTCGG, the binding signal (log2 normalized intensity) came out at 2.31.

As for TTCACATAGCCACCAGGGCCTCTGAGATAA, the binding signal (log2 normalized intensity) is -0.994.

For the sequence GACACTTTGAGAGAGGGACATGCTTGGCCT, the binding signal (log2 normalized intensity) is -1.11.

GAGACTGCCCTGAGCCGCCAGGCGGGTTCT: the binding signal (log2 normalized intensity) was -1.05.

CCAGCCCTTCACCAGAGCCGTCTGGTAAAT: the binding signal (log2 normalized intensity) is -1.13.

As to GTGAAATGGGGGAAGGGCTGGAGACGCAGG, the binding signal (log2 normalized intensity) is -1.12.

For GGCCTGGGGGGAGACAACTGCAACAGGAGG, the binding signal (log2 normalized intensity) was -1.14.

Turning to CTTTATCCTACAAGGGAGATAAACTTTATC, the binding signal (log2 normalized intensity) was 0.268.

Turning to GTTCACTGGGGAGACTCTCTCTCCTCTCCA, the binding signal (log2 normalized intensity) is -1.08.

As to GCCTAAGCAGGGCTAGACTTTAACCCCCTT, the binding signal (log2 normalized intensity) was determined as 5.53.

Turning to GTCCGAAGGTCAGCTGACCAACAGAGAAGG, the binding signal (log2 normalized intensity) came out at 1.61.

With CCCTTTGCTGATTACCTCAACTCCCACATC, the binding signal (log2 normalized intensity) was found to be 1.81.

Take CACTGCTGGGTTTCTTCCCTAATGGACATC: the binding signal (log2 normalized intensity) was determined as 1.25.

Turning to CTCCCACCCTGCAATTCCCCTGGGCCCACG, the binding signal (log2 normalized intensity) came out at 2.23.

ACCCTGTGATCATATAAGGAACAAAGTCAG: the binding signal (log2 normalized intensity) worked out at 0.724.

With CTACTTAAAAAGAAATAGCCTGAAAATGTT, the binding signal (log2 normalized intensity) was -1.15.

In the case of GAGAAAAAGTCAACACTTAGGGTGGATACT, the binding signal (log2 normalized intensity) is -0.81.

For the sequence ATGGCAAGAGATAAGGGTGGCCATCCATCC, the binding signal (log2 normalized intensity) was -1.04.
